Experimental data reported in the supplement of paper PMC3334620.
Whole data set: some 33,000 sequences, median “E-score (-0.5 to 0.5)” near -0.021, cut for the highest 2% near 0.32. Some of the results follow.

biological target: T1, Zap1 (UniProt P47043); assay: PBM E-score (8-mer binding enrichment) (E-score (-0.5 to 0.5)); higher = stronger / more preferred TF binding; most listed sequences are background and not binding sites; settings: protein concentration: 200 nM; construct: GST-full length
T1 sequence: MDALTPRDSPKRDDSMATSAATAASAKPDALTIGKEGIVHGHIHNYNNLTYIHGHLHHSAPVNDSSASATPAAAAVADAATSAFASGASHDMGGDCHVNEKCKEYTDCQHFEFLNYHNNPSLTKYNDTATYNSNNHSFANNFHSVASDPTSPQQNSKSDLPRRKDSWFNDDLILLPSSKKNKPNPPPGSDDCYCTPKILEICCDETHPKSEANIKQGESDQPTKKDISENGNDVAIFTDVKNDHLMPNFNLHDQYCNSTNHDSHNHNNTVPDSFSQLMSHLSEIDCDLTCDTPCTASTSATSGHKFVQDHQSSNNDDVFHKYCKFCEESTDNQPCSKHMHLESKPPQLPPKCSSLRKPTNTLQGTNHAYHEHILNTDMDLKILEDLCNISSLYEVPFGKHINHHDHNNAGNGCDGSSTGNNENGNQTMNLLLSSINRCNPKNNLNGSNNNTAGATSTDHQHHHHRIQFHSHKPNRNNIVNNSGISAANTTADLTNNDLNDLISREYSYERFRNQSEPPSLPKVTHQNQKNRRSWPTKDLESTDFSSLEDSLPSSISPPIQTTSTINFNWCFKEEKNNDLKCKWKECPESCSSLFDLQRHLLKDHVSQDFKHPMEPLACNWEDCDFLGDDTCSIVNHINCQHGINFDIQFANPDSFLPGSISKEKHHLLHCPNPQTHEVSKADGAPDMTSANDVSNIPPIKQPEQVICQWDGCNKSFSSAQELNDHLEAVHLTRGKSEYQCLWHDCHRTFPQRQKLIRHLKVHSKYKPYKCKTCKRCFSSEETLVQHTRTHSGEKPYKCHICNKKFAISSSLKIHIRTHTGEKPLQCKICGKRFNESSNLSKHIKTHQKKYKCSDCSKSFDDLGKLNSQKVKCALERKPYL
Procedure, shortened: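 Universal all-10-mer Agilent arrays, double-stranded by primer extension on fresh or once-stripped slides, were probed with about 100-200 nM GST-tagged yeast transcription factors made by PURExpress. Fluorescent anti-GST detected bound protein, and masliner normalised the scans. E-scores from the Universal PBM Analysis Suite were given to each ungapped eight-base word pooled with its reverse complement.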

Sequence	PBM E-score
ACTGTCAT	-0.00186
AGATTTAC	0.0547
GGAGAGAA	0.00984
AAACAGGC	-0.305
AAGAACAA	0.22
ATGGTACC	0.392
CTTCGATC	-0.0104
TGCACACA	-0.125
CACAACGG	-0.0874
CATGGCCG	0.215
ATGGAAGG	-0.043
CCTTGAGC	0.145
GATCCGTA	-0.166
CAAGAATA	0.0764
ATCTACGC	0.0293
TGGTAGAA	-0.0071
TAAAAGAA	0.111
CATACTGC	-0.118
CCCTACCG	0.115
CAGGCGGG	-0.0919
AGTGGCAC	-0.122
CGGTAACC	0.47
AACAGTCA	-0.131
ACAGTCAT	-0.188
ACCGCTCC	-0.145

Sequence	PBM E-score
ATGAAGAG	-0.127
GTTCAAAC	0.0497
ATGACTCA	-0.0492
AAGTGAGG	-0.164
CTTCGAAA	0.0989
GATCGCCC	-0.141
ACTAGGTC	0.00448
ATTACCCA	0.279
CGATTTAC	0.059
AATGTTTA	-0.0861
TCTTATCA	0.123
CGACGGCC	-0.117
ACGAGCCG	-0.059
ACAAGCTA	-0.0465
ACGGGGTG	0.0182
CCTTCACC	0.0411
AGATTGGG	0.00076
TGAATTAA	0.271
AAAACGCT	-0.131
AGGAATTC	-0.193
ACCGTCCA	-0.0528
CAACTATA	-0.0153
CAACGGTG	-0.0667
ATGCAGCA	-0.0906
CACCGCGA	0.0268

Sequence	PBM E-score
ACGTCAAT	-0.18
AAAATTTC	-0.0327
TGGGCTAA	-0.0319
CCTCGGCG	0.0712
AACGGTCG	0.114
AAGTCGAC	0.0711
AGGAGCCC	-0.255
AAAACACA	0.235
AAAAAAAG	0.227
CCTCAGTC	-0.175
CTTCAACA	0.0668
GATGAAAA	0.0619
AGCAATTC	-0.0959
AGGGCGCG	-0.018
AAATGCTC	-0.111
CTTCTTAA	0.206
AAACTCAG	-0.111
CGCCCGAA	-0.232
CCACCATC	-0.13
ATTCCATA	0.124
TCCTACAA	0.087
AGTCGCAG	-0.172
ACCAGGCT	-0.131
GGTTGGAA	0.106
TGCCCACA	-0.0685

Sequence	PBM E-score
CAACCCAA	0.272
GGCCACTA	0.199
GCCCCGTA	-0.118
ATGAGTAG	-0.0825
CGAGACAG	-0.0545
ACGTTGTC	-0.173
GAAAGTTA	0.247
AATAAACT	0.0972
GCCCTAGA	-0.0927
CATGAGCG	-0.227
GACCTATC	-0.0378
AAGCACGC	0.0161
ACATTTCG	-0.157
GTCCTGCA	-0.1
ATGGTCCG	0.0865
CCCCCCGA	-0.297
CAAGAAAC	0.217
CGGTGTTA	0.0409
ATGCGGGC	-0.224
ACATCAGT	0.0188
ATGCACGC	-0.126
CGTACAAC	0.146
CGGATAAG	-0.227
AATCTCGA	-0.018
CGTGGCCC	0.0577

Sequence	PBM E-score
GGGGTGCA	-0.051
CGACTGCG	-0.225
ACCATATA	0.192
GTCATGAC	0.159
CGAAACAA	0.1
ACCCTAGT	0.411
ACCAAATG	0.142
AAGAGCGA	-0.218
GAAACTCA	0.0578
GCAATCCA	-0.134
ACCGCTCA	0.207
GGGCCCAC	-0.0677
ATTTCGAC	-0.11
CGTCGCTC	-0.234
AATTTGAT	0.00192
CGGGAGTA	0.0681
GCAACAGC	-0.137
ACTCGGAA	0.0579
TTCAGCAA	0.0982
ACAACCGC	0.285
TATCGGCA	-0.184
CCCCAATC	-0.0086
TCACCGGA	0.0563
GGAGAAAC	-0.0683
ATCGCTGA	0.0889

Sequence	PBM E-score
CAAGAGAC	-0.0386
ACATAGAT	-0.0396
CGCGGCGC	-0.0807
CCCCTTTC	-0.0371
CCCCACAC	-0.0263
ATGTGATG	-0.0628
ATCAAAGC	0.156
ACAGCTGT	0.0505
TAGCGAAA	0.125
TAGCTACA	0.031
TCGGCCGA	-0.00911
TCCAGACA	-0.0795
GACTTGTA	-0.113
AGCCCAGG	-0.191
AACTGAGT	-0.123
CCTCCTCA	-0.167
AGACACGC	-0.222
AATGGTAT	0.23
GAGACGCC	-0.0996
GTAACTCA	0.126
CAAACGGA	-0.11
ACACTGCG	-0.0245
CTACCTCC	0.0798
AAGGAGGG	-0.0526
AAAGTGCA	0.0507

Sequence	PBM E-score
ACTGCCCT	-0.125
ACCCATAC	0.285
AAAAAGGC	0.012
GCCGGAAA	0.0572
TAGTCACA	-0.0749
CCCGTATC	0.0321
CTAAGGAG	-0.221
GAGCCTCA	-0.301
GGTTGCAC	0.181
AGCCACTG	-0.0116
CATCCTAC	-0.142
GAATCTAA	-0.00709
GATAGGGC	-0.213
GCGATTTA	-0.132
AGCTGGCC	-0.188
AAAGGAAT	-0.0362
CCCCCGAA	-0.164
GGTGGTTA	0.433
CAGTAGAC	-0.126
GAATTAAC	0.0995
CTGGTTGC	0.181
AACACAGA	0.0546
